PMC5892938
Some of the results follow. At the low end of the ranking the order means little.

molecular target: GST-SBP-SLBP (stem-loop binding protein) (UniProt Q14493); test: targeted RNA Bind-n-Seq; settings: RBNS binding buffer: 25 mM Tris pH 7.5, 150 mM KCl, 3 mM MgCl2, 0.1% Tween, 0.5 mg/mL BSA, 1 mM DTT; 27 nM protein, 750 pM RNA pool; temperature not stated; high values mean tight binding;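 note: DESeq read counts versus GST-SBP nonspecific binding control pulldown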

Sequence | binding signal (log2 fold change)
GGUCACGUCUCAAUCAACUCUUCCUCAGGAGUUUUCUCCUGUUAUUUCAACAGCUCGCAGUCAAG | 0.107
GGUCACGUCUCAAUCAACUCAAUCCCCAGGGAAACCCCUGGCAUAGUCAACAGCUCGCAGUCAAG | 0.0243
GGUCACGUCUCAAUCAACUCUAUUCCCAGGGAAAACCCUGGCAUUUUCAACAGCUCGCAGUCAAG | 0.49
GGUCACGUCUCAAUCAACUCAUCCUCAGGAGUUUCCUCCUGUUUUCUCAACAGCUCGCAGUCAAG | 0.0105
GGUCACGUCUCAAUCAACUCUUUUCCAGGAGUUUCCUCCUGCUAAUUCAACAGCUCGCAGUCAAG | 0.115
GGUCACGUCUCAAUCAACUCAUUCUCCAGGGAAAGCCCUGGCAAUUUCAACAGCUCGCAGUCAAG | 0.0977
GGUCACGUCUCAAUCAACUCUUUCCCCAGGGAAAGCCCUGGUUAAUUCAACAGCUCGCAGUCAAG | 0.0135
GGUCACGUCUCAAUCAACUCAACUCCCAGGGAAAACCCUGGCAUUUUCAACAGCUCGCAGUCAAG | -0.00339
GGUCACGUCUCAAUCAACUCAUCUCCCAGGGAAAACCCUGGUUUUUUCAACAGCUCGCAGUCAAG | -0.108
GGUCACGUCUCAAUCAACUCUACUCCCAGGGAAACCCCUGGUAUUUUCAACAGCUCGCAGUCAAG | -0.0341
GGUCACGUCUCAAUCAACUCCUAAGAGGGGGGGAAAACCCCUUUACCCUCAAUUUCAACAGCUCGCAGUCAAG | -0.0542
GGUCACGUCUCAAUCAACUCACUCGAGGGGGGGAAAACCCCUUUACCCUCACAAUCAACAGCUCGCAGUCAAG | -0.266
GGUCACGUCUCAAUCAACUCAUCCUCCAGGGAAAGCCCUGGUAUUCUCAACAGCUCGCAGUCAAG | 0.104
GGUCACGUCUCAAUCAACUCUUUCCCCAGGGAAAACCCUGGUAAUCUCAACAGCUCGCAGUCAAG | 0.26
GGUCACGUCUCAAUCAACUCUAUCCCAGGAGUUUUCUCCUGUUAUUUCAACAGCUCGCAGUCAAG | -0.14
GGUCACGUCUCAAUCAACUCUUUAGAGGGGGGGAAAACCCCUUUGCCCUCCGUAUCAACAGCUCGCAGUCAAG | -0.208
GGUCACGUCUCAAUCAACUCAACAGAGGGGGGGAAAACCCCUUUACCCUCCACCUCAACAGCUCGCAGUCAAG | 0.265
GGUCACGUCUCAAUCAACUCCUACGAGGGGGGGAAAACCCCUUUACCCUCAACUUCAACAGCUCGCAGUCAAG | -0.294
GGUCACGUCUCAAUCAACUCGCAAGAGGGGGGGAAAACCCCUUUACCCUCCAAUUCAACAGCUCGCAGUCAAG | -0.0707
GGUCACGUCUCAAUCAACUCAAUCUCCAGGGAAAACCCUGGUUAAUUCAACAGCUCGCAGUCAAG | -0.0359
GGUCACGUCUCAAUCAACUCAAGGUCAGGAGUUUACUCCUGCAAAUUCAACAGCUCGCAGUCAAG | -0.161
GGUCACGUCUCAAUCAACUCUUCGUCAGGAGUUUUCUCCUGUAUACUCAACAGCUCGCAGUCAAG | 0.0793
GGUCACGUCUCAAUCAACUCAGUUUCCAGGGAAAACCCUGGCUUUCUCAACAGCUCGCAGUCAAG | 0.31
GGUCACGUCUCAAUCAACUCAUCUCCCAGGGAAAUCCCUGGCUUAUUCAACAGCUCGCAGUCAAG | 0.417
GGUCACGUCUCAAUCAACUCAUUCUCAGGAGUUUCCUCCUGUAAUCUCAACAGCUCGCAGUCAAG | 0.0777

Sequence | binding signal (log2 fold change)
GGUCACGUCUCAAUCAACUCAUCAGAGGGGGGGAAAACCCCUUUACCCUCCAUCUCAACAGCUCGCAGUCAAG | -0.151
GGUCACGUCUCAAUCAACUCUAUUCCAGGAGUUUUCUCCUGCAUUCUCAACAGCUCGCAGUCAAG | 0.02
GGUCACGUCUCAAUCAACUCAUCCCCAGGAGUUUACUCCUGCUUACUCAACAGCUCGCAGUCAAG | 0.248
GGUCACGUCUCAAUCAACUCAGUUCCAGGAGUUUUCUCCUGCAUAUUCAACAGCUCGCAGUCAAG | -0.148
GGUCACGUCUCAAUCAACUCAUUUCCCAGGGAAAGCCCUGGCUUAUUCAACAGCUCGCAGUCAAG | 0.106
GGUCACGUCUCAAUCAACUCAUCCUCCAGGGAAAACCCUGGUAAACUCAACAGCUCGCAGUCAAG | -0.0493
GGUCACGUCUCAAUCAACUCAUCUUCCAGGGAAAACCCUGGUUAAUUCAACAGCUCGCAGUCAAG | -0.0913
GGUCACGUCUCAAUCAACUCAUCAGAGGGGGGGAAAACCCCUUUACCCUCACAAUCAACAGCUCGCAGUCAAG | 0.0887
GGUCACGUCUCAAUCAACUCAGUCCCAGGAGUUUUCUCCUGCAAUCUCAACAGCUCGCAGUCAAG | -0.0619
GGUCACGUCUCAAUCAACUCAUCUCCCAGGGAAAACCCUGGCAUUUUCAACAGCUCGCAGUCAAG | -0.256
GGUCACGUCUCAAUCAACUCAUUCUCCAGGGAAAGCCCUGGUUUAUUCAACAGCUCGCAGUCAAG | -0.115
GGUCACGUCUCAAUCAACUCAAUCUCCAGGGAAAUCCCUGGUUUAUUCAACAGCUCGCAGUCAAG | 0.00447
GGUCACGUCUCAAUCAACUCAUUAGAGGGGGGGAAAACCCCUUUGCCCUCAUCGUCAACAGCUCGCAGUCAAG | -0.627
GGUCACGUCUCAAUCAACUCAAUCUCAGGAGUUUCCUCCUGUUAACUCAACAGCUCGCAGUCAAG | 0.181
GGUCACGUCUCAAUCAACUCUUCUUCCAGGGAAAUCCCUGGUAUACUCAACAGCUCGCAGUCAAG | 0.0374
GGUCACGUCUCAAUCAACUCUUUUCCCAGGGAAAACCCUGGCAAUUUCAACAGCUCGCAGUCAAG | -0.00751
GGUCACGUCUCAAUCAACUCAGUCCCAGGAGUUUGCUCCUGCAUAUUCAACAGCUCGCAGUCAAG | 0.0033
GGUCACGUCUCAAUCAACUCCUUCGAGGGGGGGAAAACCCCUUUACCCUCAACAUCAACAGCUCGCAGUCAAG | -0.116
GGUCACGUCUCAAUCAACUCUUUCGAGGGGGGGAAAACCCCUUUACCCUCACACUCAACAGCUCGCAGUCAAG | 0.0756
GGUCACGUCUCAAUCAACUCAAUUUCAGGAGUUUGCUCCUGCUAAUUCAACAGCUCGCAGUCAAG | 0.108
GGUCACGUCUCAAUCAACUCAAUUCCCAGGGAAACCCCUGGCAAAUUCAACAGCUCGCAGUCAAG | -0.0961
GGUCACGUCUCAAUCAACUCAUCCUCAGGAGUUUUCUCCUGUAUUUUCAACAGCUCGCAGUCAAG | 0.254
GGUCACGUCUCAAUCAACUCAUCGCCAGGAGUUUUCUCCUGCAUAUUCAACAGCUCGCAGUCAAG | -0.05
GGUCACGUCUCAAUCAACUCUAUCGCAGGAGUUUUCUCCUGGUUUUUCAACAGCUCGCAGUCAAG | -0.0572
GGUCACGUCUCAAUCAACUCAAUCCCAGGAGUUUUCUCCUGCAAUCUCAACAGCUCGCAGUCAAG | 0.0531

Sequence | binding signal (log2 fold change)
GGUCACGUCUCAAUCAACUCAAUCCCAGGAGUUUUCUCCUGUAAUCUCAACAGCUCGCAGUCAAG | 0.0189
GGUCACGUCUCAAUCAACUCAUUUUCCAGGGAAAUCCCUGGCGUAUUCAACAGCUCGCAGUCAAG | 0.0186
GGUCACGUCUCAAUCAACUCUUCCCCCAGGGAAAACCCUGGCAAUUUCAACAGCUCGCAGUCAAG | -0.0532
GGUCACGUCUCAAUCAACUCUACGGCAGGAGUUUACUCCUGGAAUUUCAACAGCUCGCAGUCAAG | 0.0671
GGUCACGUCUCAAUCAACUCCUCAGAGGGGGGGAAAACCCCUUUACCCUCCGUAUCAACAGCUCGCAGUCAAG | 0.173
GGUCACGUCUCAAUCAACUCUAGUCCCAGGGAAAACCCUGGUUAUUUCAACAGCUCGCAGUCAAG | -0.261
GGUCACGUCUCAAUCAACUCAAUUUCCAGGGAAACCCCUGGCAUACUCAACAGCUCGCAGUCAAG | -0.288
GGUCACGUCUCAAUCAACUCUAUUUCCAGGGAAAUCCCUGGCAUUUUCAACAGCUCGCAGUCAAG | 0.0836
GGUCACGUCUCAAUCAACUCUCUGGAGGGGGGGAAAACCCCUUUACCCUCAACAUCAACAGCUCGCAGUCAAG | -0.497
GGUCACGUCUCAAUCAACUCAUCCUCAGGAGUUUCCUCCUGCAUUUUCAACAGCUCGCAGUCAAG | 0.0885
GGUCACGUCUCAAUCAACUCAUCCCCCAGGGAAAACCCUGGCAUUCUCAACAGCUCGCAGUCAAG | -0.11
GGUCACGUCUCAAUCAACUCAAUCCCCAGGGAAAACCCUGGUAUACUCAACAGCUCGCAGUCAAG | 0.0502
GGUCACGUCUCAAUCAACUCUUUUCCCAGGGAAAGCCCUGGCUUACUCAACAGCUCGCAGUCAAG | 0.187
GGUCACGUCUCAAUCAACUCAAUUCCCAGGGAAAGCCCUGGCUAUCUCAACAGCUCGCAGUCAAG | 0.166
GGUCACGUCUCAAUCAACUCUUCGUCAGGAGUUUUCUCCUGUAAUCUCAACAGCUCGCAGUCAAG | -0.221
GGUCACGUCUCAAUCAACUCAUUCUCAGGAGUUUGCUCCUGCUUACUCAACAGCUCGCAGUCAAG | 0.11
GGUCACGUCUCAAUCAACUCGUUUUCAGGAGUUUACUCCUGCUAUUUCAACAGCUCGCAGUCAAG | 0.0776
GGUCACGUCUCAAUCAACUCUACUCCCAGGGAAACCCCUGGCAAUCUCAACAGCUCGCAGUCAAG | -0.157
GGUCACGUCUCAAUCAACUCAUCCCCAGGAGUUUCCUCCUGCUAUUUCAACAGCUCGCAGUCAAG | 0.18
GGUCACGUCUCAAUCAACUCUUCUUCCAGGGAAACCCCUGGCAAAUUCAACAGCUCGCAGUCAAG | -0.213
GGUCACGUCUCAAUCAACUCAAUUCCCAGGGAAAUCCCUGGUUAUCUCAACAGCUCGCAGUCAAG | -0.164
GGUCACGUCUCAAUCAACUCAAUCGAGGGGGGGAAAACCCCUUUACCCUCAAACUCAACAGCUCGCAGUCAAG | 0.147
GGUCACGUCUCAAUCAACUCAUUCUCAGGAGUUUACUCCUGUUUAUUCAACAGCUCGCAGUCAAG | -0.0435
GGUCACGUCUCAAUCAACUCUUCUCCCAGGGAAACCCCUGGCAAUGUCAACAGCUCGCAGUCAAG | -0.028
